Assay [1] addresses T1, Syndetin-GFP (GFP-tagged VPS50) (UniProt Q96JG6).
T1 sequence: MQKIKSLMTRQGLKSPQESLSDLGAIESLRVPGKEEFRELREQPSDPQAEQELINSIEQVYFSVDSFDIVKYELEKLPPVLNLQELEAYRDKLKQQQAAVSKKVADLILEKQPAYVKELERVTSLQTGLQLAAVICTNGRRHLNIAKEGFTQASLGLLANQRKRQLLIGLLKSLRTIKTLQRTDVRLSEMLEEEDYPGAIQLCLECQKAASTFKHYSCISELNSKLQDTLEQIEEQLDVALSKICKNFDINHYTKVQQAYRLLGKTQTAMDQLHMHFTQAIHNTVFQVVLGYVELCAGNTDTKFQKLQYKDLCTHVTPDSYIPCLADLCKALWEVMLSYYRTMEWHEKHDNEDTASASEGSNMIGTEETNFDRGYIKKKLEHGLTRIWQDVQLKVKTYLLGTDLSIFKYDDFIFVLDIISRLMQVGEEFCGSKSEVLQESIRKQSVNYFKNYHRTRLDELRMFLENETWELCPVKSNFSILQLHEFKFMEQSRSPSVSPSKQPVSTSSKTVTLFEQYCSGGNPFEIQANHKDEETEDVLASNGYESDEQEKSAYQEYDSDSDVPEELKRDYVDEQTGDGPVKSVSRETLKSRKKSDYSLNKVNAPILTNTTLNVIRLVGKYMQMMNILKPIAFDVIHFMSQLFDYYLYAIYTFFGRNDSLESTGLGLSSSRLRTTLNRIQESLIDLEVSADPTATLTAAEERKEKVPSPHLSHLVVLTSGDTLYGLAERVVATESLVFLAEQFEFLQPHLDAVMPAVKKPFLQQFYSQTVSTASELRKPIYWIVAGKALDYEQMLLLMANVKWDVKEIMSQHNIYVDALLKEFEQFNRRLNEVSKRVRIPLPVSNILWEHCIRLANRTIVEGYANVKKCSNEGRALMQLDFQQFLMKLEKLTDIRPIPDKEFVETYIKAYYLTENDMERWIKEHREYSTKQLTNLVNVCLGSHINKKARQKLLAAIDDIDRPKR
Kind of assay: co-IP; HEK293FT transfected with GFP-tagged VPS50 (syndetin) or VPS54 and FLAG-tagged LRRK2; which protein was precipitated is not told.

Chains of the proteins cited; added tags and fusions are not shown.
UniProt Q5S007: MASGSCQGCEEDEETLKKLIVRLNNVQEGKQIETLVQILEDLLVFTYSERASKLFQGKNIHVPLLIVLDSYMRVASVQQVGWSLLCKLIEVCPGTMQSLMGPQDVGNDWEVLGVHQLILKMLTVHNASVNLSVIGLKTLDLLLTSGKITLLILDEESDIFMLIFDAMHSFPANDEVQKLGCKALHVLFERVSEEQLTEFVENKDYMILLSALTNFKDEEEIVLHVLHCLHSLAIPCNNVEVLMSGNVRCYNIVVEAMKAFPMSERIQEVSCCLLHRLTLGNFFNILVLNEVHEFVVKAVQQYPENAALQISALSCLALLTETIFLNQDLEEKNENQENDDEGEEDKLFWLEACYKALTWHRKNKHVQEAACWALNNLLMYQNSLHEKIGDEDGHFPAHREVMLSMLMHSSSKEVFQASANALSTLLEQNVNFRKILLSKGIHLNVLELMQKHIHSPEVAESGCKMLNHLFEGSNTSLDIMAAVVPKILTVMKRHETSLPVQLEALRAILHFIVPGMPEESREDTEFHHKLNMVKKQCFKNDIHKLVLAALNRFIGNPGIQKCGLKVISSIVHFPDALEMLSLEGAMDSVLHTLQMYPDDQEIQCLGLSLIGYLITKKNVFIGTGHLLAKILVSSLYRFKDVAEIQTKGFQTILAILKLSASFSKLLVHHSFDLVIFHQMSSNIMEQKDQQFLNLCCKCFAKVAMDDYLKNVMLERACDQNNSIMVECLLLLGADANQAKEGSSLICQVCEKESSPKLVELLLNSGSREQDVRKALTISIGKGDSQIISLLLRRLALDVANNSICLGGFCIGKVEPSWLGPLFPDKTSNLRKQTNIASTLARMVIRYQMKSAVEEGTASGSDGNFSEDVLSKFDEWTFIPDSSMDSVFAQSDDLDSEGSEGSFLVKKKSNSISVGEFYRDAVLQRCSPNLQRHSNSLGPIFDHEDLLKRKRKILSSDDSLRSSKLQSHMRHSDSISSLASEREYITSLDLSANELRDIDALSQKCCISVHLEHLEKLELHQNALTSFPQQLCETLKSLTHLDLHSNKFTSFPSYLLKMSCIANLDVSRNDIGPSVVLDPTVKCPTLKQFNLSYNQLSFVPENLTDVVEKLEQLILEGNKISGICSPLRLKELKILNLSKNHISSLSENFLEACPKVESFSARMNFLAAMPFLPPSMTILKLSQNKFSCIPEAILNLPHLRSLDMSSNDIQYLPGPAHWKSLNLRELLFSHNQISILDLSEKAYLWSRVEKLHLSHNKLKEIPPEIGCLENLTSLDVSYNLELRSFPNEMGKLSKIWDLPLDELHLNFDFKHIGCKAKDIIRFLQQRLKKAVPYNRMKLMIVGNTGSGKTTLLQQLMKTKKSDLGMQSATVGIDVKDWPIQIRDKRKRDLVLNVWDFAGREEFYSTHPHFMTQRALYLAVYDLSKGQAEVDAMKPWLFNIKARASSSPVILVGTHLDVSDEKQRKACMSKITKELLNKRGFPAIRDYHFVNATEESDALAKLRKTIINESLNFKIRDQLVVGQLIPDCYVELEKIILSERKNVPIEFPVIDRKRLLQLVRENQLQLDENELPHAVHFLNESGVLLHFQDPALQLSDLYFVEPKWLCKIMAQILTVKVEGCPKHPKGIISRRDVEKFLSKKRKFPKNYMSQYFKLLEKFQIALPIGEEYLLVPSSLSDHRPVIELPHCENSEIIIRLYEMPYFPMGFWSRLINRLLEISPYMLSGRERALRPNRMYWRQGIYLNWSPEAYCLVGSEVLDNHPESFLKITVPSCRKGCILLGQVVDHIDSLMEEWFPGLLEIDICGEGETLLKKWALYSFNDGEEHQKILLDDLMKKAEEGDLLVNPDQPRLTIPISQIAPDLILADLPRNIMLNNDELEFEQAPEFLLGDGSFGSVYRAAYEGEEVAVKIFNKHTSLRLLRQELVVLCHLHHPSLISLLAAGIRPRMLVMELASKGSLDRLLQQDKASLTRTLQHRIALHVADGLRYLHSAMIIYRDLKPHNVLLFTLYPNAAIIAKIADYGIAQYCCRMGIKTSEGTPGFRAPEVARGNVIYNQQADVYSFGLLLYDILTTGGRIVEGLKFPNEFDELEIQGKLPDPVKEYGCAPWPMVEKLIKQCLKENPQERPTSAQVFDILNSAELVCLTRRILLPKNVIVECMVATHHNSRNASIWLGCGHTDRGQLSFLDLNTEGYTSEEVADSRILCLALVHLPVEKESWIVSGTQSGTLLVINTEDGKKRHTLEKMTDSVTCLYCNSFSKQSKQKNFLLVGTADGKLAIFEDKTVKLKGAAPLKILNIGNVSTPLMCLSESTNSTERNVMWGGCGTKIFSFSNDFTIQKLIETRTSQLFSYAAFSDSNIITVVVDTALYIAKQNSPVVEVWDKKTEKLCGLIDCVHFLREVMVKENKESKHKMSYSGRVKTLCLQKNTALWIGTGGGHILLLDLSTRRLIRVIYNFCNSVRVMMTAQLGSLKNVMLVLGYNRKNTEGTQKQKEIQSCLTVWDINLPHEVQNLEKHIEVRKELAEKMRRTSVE

Assay [2] concerns the target T2, VPS54-GFP (human) (UniProt Q9P1Q0).
T2 sequence: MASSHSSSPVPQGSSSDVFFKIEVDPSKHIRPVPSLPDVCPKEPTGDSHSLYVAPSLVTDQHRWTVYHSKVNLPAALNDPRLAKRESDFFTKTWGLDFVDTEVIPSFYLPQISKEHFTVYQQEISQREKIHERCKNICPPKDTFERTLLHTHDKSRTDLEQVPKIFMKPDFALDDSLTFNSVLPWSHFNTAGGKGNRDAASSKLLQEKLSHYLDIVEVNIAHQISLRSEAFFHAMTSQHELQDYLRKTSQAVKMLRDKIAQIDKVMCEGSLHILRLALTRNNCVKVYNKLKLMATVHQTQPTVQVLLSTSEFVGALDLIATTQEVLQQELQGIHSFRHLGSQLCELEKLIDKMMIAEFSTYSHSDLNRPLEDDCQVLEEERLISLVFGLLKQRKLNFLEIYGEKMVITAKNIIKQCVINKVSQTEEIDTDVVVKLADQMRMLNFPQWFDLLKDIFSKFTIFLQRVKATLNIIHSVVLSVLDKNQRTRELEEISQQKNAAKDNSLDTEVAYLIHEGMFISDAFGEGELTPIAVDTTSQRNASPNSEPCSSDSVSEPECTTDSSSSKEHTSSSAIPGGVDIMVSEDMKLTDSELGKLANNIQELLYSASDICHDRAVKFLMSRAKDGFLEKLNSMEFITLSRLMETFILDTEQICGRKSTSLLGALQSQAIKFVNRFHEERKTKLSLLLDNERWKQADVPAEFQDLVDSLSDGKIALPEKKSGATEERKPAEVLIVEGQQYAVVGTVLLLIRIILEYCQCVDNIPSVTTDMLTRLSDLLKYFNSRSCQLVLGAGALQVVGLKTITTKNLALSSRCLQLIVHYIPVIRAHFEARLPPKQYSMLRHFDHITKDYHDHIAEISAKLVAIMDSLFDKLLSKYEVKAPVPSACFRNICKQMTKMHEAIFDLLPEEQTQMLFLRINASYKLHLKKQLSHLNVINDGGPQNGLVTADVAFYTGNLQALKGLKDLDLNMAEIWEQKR
The assay is described as above.

Assay [3] has as its target 3xFLAG-tagged full-length LRRK2 (pCHMWS-3xflag-LRRK2) (UniProt Q5S007). Briefly: co-IP; HEK293FT transfected with 3xFLAG-tagged bait; lysate in 20 mM Tris-HCl pH 7.5, 150 mM NaCl, 1 mM EDTA, 0.3% Triton X-100, 10% glycerol; anti-flag M2 agarose 1 h at 4°C; eluted with 3xflag peptide; blotted for endogenous partners; mock and FLAG-GUS as negative controls.
Assay [4] has as its target T3, 3xFLAG-tagged full-length RAB29 (p3x-flag-HD-DEST-RAB29) (UniProt O14966).
T3 sequence: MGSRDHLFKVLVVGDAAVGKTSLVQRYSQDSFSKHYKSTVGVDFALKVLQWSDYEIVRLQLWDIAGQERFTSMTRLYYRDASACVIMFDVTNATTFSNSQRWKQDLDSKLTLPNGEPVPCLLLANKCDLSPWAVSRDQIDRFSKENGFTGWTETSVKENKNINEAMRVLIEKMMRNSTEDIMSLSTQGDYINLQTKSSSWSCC
The assay is described as above.

The target of assay [5] is T4, VPS52 spotted on the Protoarray, version 5.2 (UniProt Q8N1B4).
T4 sequence: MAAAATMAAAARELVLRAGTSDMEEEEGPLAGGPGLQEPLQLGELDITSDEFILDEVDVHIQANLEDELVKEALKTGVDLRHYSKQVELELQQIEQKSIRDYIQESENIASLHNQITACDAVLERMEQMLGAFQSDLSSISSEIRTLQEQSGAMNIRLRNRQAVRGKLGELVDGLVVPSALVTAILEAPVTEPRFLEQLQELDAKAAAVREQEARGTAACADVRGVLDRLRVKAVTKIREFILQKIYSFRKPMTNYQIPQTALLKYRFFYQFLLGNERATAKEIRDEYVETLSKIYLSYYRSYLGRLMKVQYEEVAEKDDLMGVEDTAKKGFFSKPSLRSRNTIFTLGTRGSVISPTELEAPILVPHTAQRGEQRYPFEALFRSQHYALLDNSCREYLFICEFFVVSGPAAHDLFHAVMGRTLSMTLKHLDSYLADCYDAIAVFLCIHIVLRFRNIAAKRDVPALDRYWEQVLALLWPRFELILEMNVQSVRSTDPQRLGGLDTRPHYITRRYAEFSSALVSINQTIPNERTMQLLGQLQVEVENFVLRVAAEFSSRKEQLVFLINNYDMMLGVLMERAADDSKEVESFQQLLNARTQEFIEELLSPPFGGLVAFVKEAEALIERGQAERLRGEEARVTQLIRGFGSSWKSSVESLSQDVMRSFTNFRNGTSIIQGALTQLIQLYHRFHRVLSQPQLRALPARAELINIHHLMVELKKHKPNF
Briefly: peptide or protein array; Protoarrays version 5.2 (Thermo Scientific) probed with 6 micrograms of purified 3x-flag-tagged protein; detected with biotinylated anti-Flag M2 and Alexa Fluor 647 streptavidin; 3x-flag eGFP as control; hits by ProtoArray Prospector (Z-scores); both purified.

No constants are given. Whether binding was seen depends on the method and setting. For some of these results: In cells and extracts the contact can be indirect. Some entries that bind do so weakly or less than the wild type. For some of these results: Sequences can lack the tags named with a protein.

With “3xFLAG-tagged full-length LRRK2 (pCHMWS-3xflag-LRRK2) (from UniProt Q5S007 1-2527)”, the binding entry in assay [1] and in assay [2] was “binds” in each case.

B1: endogenous VPS53 (protein, UniProt Q5VIR6 1-832)
chain: MMEEEELEFVEELEAVLQLTPEVQLAIEQVFPSQDPLDRADFNAVEYINTLFPTEQSLANIDEVVNKIRLKIRRLDDNIRTVVRGQTNVGQDGRQALEEAQKAIQQLFGKIKDIKDKAEKSEQMVKEITRDIKQLDHAKRHLTTSITTLNHLHMLAGGVDSLEAMTRRRQYGEVANLLQGVMNVLEHFHKYMGIPQIRQLSERVKAAQTELGQQILADFEEAFPSQGTKRPGGPSNVLRDACLVANILDPRIKQEIIKKFIKQHLSEYLVLFQENQDVAWLDKIDRRYAWIKRQLVDYEEKYGRMFPREWCMAERIAVEFCHVTRAELAKIMRTRAKEIEVKLLLFAIQRTTNFEGFLAKRFSGCTLTDGTLKKLESPPPSTNPFLEDEPTPEMEELATEKGDLDQPKKPKAPDNPFHGIVSKCFEPHLYVYIESQDKNLGELIDRFVADFKAQGPPKPNTDEGGAVLPSCADLFVYYKKCMVQCSQLSTGEPMIALTTIFQKYLREYAWKILSGNLPKTTTSSGGLTISSLLKEKEGSEVAKFTLEELCLICNILSTAEYCLATTQQLEEKLKEKVDVSLIERINLTGEMDTFSTVISSSIQLLVQDLDAACDPALTAMSKMQWQNVEHVGDQSPYVTSVILHIKQNVPIIRDNLASTRKYFTQFCVKFANSFIPKFITHLFKCKPISMVGAEQLLLDTHSLKMVLLDLPSISSQVVRKAPASYTKIVVKGMTRAEMILKVVMAPHEPLVVFVDNYIKLLTDCNTETFQKILDMKGLKRSEQSSMLELLRQRLPAPPSGAESSGSLSLTAPTPEQESSRIRKLEKLIKKRL
B1: the binding result in assay [3] and in assay [4] was “binds” throughout.

B2: endogenous VPS51 (protein, UniProt Q9UID3 1-782)
chain: MAAAAAAGPSPGSGPGDSPEGPEGEAPERRRKAHGMLKLYYGLSEGEAAGRPAGPDPLDPTDLNGAHFDPEVYLDKLRRECPLAQLMDSETDMVRQIRALDSDMQTLVYENYNKFISATDTIRKMKNDFRKMEDEMDRLATNMAVITDFSARISATLQDRHERITKLAGVHALLRKLQFLFELPSRLTKCVELGAYGQAVRYQGRAQAVLQQYQHLPSFRAIQDDCQVITARLAQQLRQRFREGGSGAPEQAECVELLLALGEPAEELCEEFLAHARGRLEKELRNLEAELGPSPPAPDVLEFTDHGGSGFVGGLCQVAAAYQELFAAQGPAGAEKLAAFARQLGSRYFALVERRLAQEQGGGDNSLLVRALDRFHRRLRAPGALLAAAGLADAATEIVERVARERLGHHLQGLRAAFLGCLTDVRQALAAPRVAGKEGPGLAELLANVASSILSHIKASLAAVHLFTAKEVSFSNKPYFRGEFCSQGVREGLIVGFVHSMCQTAQSFCDSPGEKGGATPPALLLLLSRLCLDYETATISYILTLTDEQFLVQDQFPVTPVSTLCAEARETARRLLTHYVKVQGLVISQMLRKSVETRDWLSTLEPRNVRAVMKRVVEDTTAIDVQVGLLYEEGVRKAQSSDSSKRTFSVYSSSRQQGRYAPSYTPSAPMDTNLLSNIQKLFSERIDVFSPVEFNKVSVLTGIIKISLKTLLECVRLRTFGRFGLQQVQVDCHFLQLYLWRFVADEELVHLLLDEVVASAALRCPDPVPMEPSVVEVICERG
On to B2, for which the binding result in assay [3] and in assay [4] was “binds” throughout.

B3: 3xFLAG-tagged full-length RAB29 (p3x-flag-HD-DEST-RAB29) (protein, UniProt O14966 1-203)
chain: T3 sequence
Take B3: the binding result in assay [5] is “binds”.

Source of the values: paper PMC7315779.
